“And” between values parts separate entries of the source, which are not always exact repeats. Equal values may be shown once. Out of some 420,000 compounds screened, about 50,000 (12%) were called active. Inconclusive results, whose numbers are uncertain, are shown with a selection of clear calls. Calls follow the shape of the dose curve; as a rule, active = well fitted inhibition curve with a large enough effect; inconclusive = small, poorly fitted or top-dose-only effect; inactive = flat fitted curve, though single readings scatter. Where the call is inconclusive, the potency comes from a doubtful curve fit.
Assay: qHTS for Inhibitors of human tyrosyl-DNA phosphodiesterase 1 (TDP1): qHTS in cells in presence of CPT; also: nearly all actives have a fitted effect of over 55% in size
Settings: chicken DT40 Tdp1-/-;hTDP1 cells + 20 nM CPT, ATP luminescence, 48 h; activity change, negative = growth inhibition: at 46.2 µM (top of the series)
Procedure, shortened: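 Cell growth measured by CellTiter-Glo luminescence after a minimum 48 h, 37 C compound exposure with 20 nM CPT in Tdp1-knockout DT40 cells stably expressing hTDP1, seeded 400/well; qHTS titration format.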
% is scaled to controls: 0 for no effect and ±100 for the full control effect; potency is read from the fitted curve at half-maximal effect; tags tell the direction and shape of the fitted curve.

SMILES	Potency	activity change, negative = growth inhibition
O=C(Nc1ccccc1C(F)(F)F)NC1(C(=O)N2CCOCC2)CCCCC1	inconclusive: 29.1 µM [inhibitor, single point]	
CCc1ccccc1NC(=O)c1ccc2c(c1)CCN2S(C)(=O)=O	inactive and inconclusive: 25.9 µM [inhibitor, partial curve, poor fit]	
COc1ccccc1N1CCN(C(=O)CCCC2=NS(=O)(=O)c3ccccc3N2)CC1		inconclusive: -33.5% [inhibitor]
COc1cc(NC(=O)c2sc3nc4n(c(=O)c3c2C)CCCCC4)cc(OC)c1OC	inconclusive: 25.9 µM [inhibitor, single point]	
O=C(NCc1ccco1)c1cccc(-c2ccc3nncn3c2)c1	inactive	
c1ccc(C2=Nc3cccnc3C(c3ccccc3)=NN2)cc1	inactive	
O=C(Cn1ncc2c3ccccc3n(Cc3ccccc3)c2c1=O)NCCN1CCOCC1	inactive	
Cc1cccc(CSCCNC(=O)c2ccc(CN3CCOCC3)cc2)c1	inconclusive: 29.1 µM [inhibitor, single point]	
CCC(C)(C)n1nnnc1C(c1ccccn1)N1CCN(c2cccc(OC)c2)CC1 (stereo not drawn)	inactive	
COc1ccc(CNC(=O)c2nc(Cn3nc(C)c(Br)c3C)no2)cc1OC	inactive	
C/C(=N\NC(=O)c1nnn(-c2nonc2N)c1CN(C)c1ccccc1)c1ccccn1	active: 4.61 µM	
O=C(NC1CCCC1)c1cccc(S(=O)(=O)N2CCCC2)c1	inactive	
CCCCCCCCN1C(=O)[C@H](CC(=O)N2CCSCC2)C[C@@]2(C(=O)OCC)CCCC=C12	active: 20.6 µM	
O=C(NNC1=NS(=O)(=O)c2ccccc21)c1ccc(Cl)cc1	inactive	
CCN(C(=O)c1cc2cc3ccc(OC)cc3nc2o1)c1cccc(C)c1	active: 23.1 µM	
Cc1nc(SCC(=O)CC(=O)OC(C)C)c(C#N)c(C)c1C	active: 20.6 µM	
CN(C)S(=O)(=O)c1ccc(N2CCCC2)c(C(=O)NCc2ccccc2)c1	inactive	
COc1ccc(N2CCN(S(=O)(=O)c3c(C)[nH]c(=O)[nH]c3=O)CC2)cc1	inactive	
O=S(=O)(NC1CC1)c1ccc(S(=O)(=O)N2CCCc3ccccc32)cc1	inconclusive: 29.1 µM [inhibitor, single point]	
CCN(CC(=O)Nc1ccccc1-c1ccccc1)Cc1nc2ccccc2c(=O)[nH]1	active: 5.8 µM	
COc1cccc(Cn2c3ccc(NC(=O)CC(C)C(F)(F)F)cc3c(=O)n2C)c1 (stereo not drawn)	inconclusive: 29.1 µM [inhibitor, single point]	
C=Cn1ccnc1P(=S)(c1ccc2c(c1)c1ccccc1n2CC)c1nccn1C=C	active: 29.1 µM	
CC1=C(C)CC(C(=O)NNC(=O)c2csc3c2CCC(C(C)(C)C)C3)C(C(=O)O)C1 (stereo not drawn)	inactive	
COc1cc(C)c(CN2CCCCC2CO)cc1C (stereo not drawn)	inactive	
COc1ccc(S(=O)(=O)N2CCN(C/C=C/c3ccccc3)CC2)cc1NC(C)=O	inactive	

SMILES	Potency	activity change, negative = growth inhibition
CCC1Nc2ncnc(N3CCN(c4ccccc4)CC3)c2N(Cc2ccc(OC)cc2)C1=O (stereo not drawn)	inconclusive: 29.1 µM [inhibitor, single point]	
Cc1ccc(C(=O)COC(=O)c2cc(Cl)nc3ccccc23)cc1	inactive	
Cc1ccc2[nH]c(CCN(C)C)c(CC#N)c2c1	inconclusive: 35.5 µM [inhibitor, single point]	
CCOC(=O)c1c(C)[nH]c(C)c1C(=O)CSc1nnc(-c2ccc(OC(F)F)cc2)o1	inconclusive: 13 µM [inhibitor, partial curve, poor fit]	
CCC(=O)Nc1ccc2c(c1)nc1n2CCN(C2CCCCC2)C1	inconclusive: 23.1 µM [inhibitor, single point]	
CC12CCC(=O)N1C(C(=O)Nc1ccc(Cl)c(Cl)c1)CS2 (stereo not drawn)	inactive	
CC(=NNC(=O)c1ccncc1)c1cc(Cl)ccc1Cl	inactive	
CCOC(=O)C1CCN(C(=O)c2ccc(CNS(=O)(=O)c3ccc(OC)cc3)cc2)CC1	inactive	
COc1cc(-c2cccs2)cc(=O)c2c(C)oc(C)c12	active: 13 µM	
CCOC(=O)c1c(NC(=O)CSc2ncccn2)sc2c1CCN(Cc1ccccc1)C2	inconclusive: 29.1 µM [inhibitor, single point]	
Cc1ccc(NC(=O)COc2cccc(Oc3ccccc3)c2)cc1S(=O)(=O)N1CCOCC1	inconclusive: 23.1 µM [inhibitor, single point]	
COc1ccc(-c2csc(NC(=O)[C@H](C)N3C(=O)C4CC=CCC4C3=O)n2)cc1OC (stereo partly drawn)	inconclusive: 16.4 µM [inhibitor, single point]	
CCN(CC)c1ccc(CN2CCCCCC2)cc1	inactive	
C[C@H](CO)N1C[C@H](C)[C@@H](CN(C)S(=O)(=O)c2cccs2)Oc2ccc(NS(=O)(=O)c3ccccc3)cc2CC1=O	inconclusive: 29.1 µM [inhibitor, single point]	
CC1CCCCN1C(=O)C1CCCN(S(=O)(=O)c2cccc3nsnc23)C1 (stereo not drawn)	inconclusive: 25.9 µM [inhibitor, single point]	
Cc1ccc(N(C)C(=O)C2CCN(S(=O)(=O)c3ccc4c(c3)oc(=O)n4C)CC2)cc1	inconclusive: 25.9 µM [inhibitor, single point]	
COc1ccc(N/N=C(\C=N\O)C(=O)c2ccc(OC)cc2)cc1	active: 2.59 µM	
Cc1cc(C(=O)COC(=O)c2cc(Cl)c(O)c(Cl)c2)c(C)n1C	inactive	
CCCC(=O)NC(=S)Nc1c(C)cc(Br)cc1C	inconclusive: 29.1 µM [inhibitor, single point]	
COc1ccc(-c2nc(C(=O)Nc3ccc(C(C)=O)cc3)nn2-c2cccc(Cl)c2)cc1		inconclusive: -36.6% [inhibitor]
COc1cccc(C(O)c2nc(-c3cccc(C#N)c3)cs2)c1 (stereo not drawn)	inconclusive: 20.6 µM [inhibitor, single point]	
CCN(CC)c1ccc2cc(-c3nc(-c4ccc(OC)cc4)cs3)c(=O)oc2c1	inconclusive: 18.4 µM [inhibitor, single point]	
NNC(=O)c1ccc(C(=O)N(c2ccccc2)c2ccccc2)cc1	inconclusive: 8.91 µM [inhibitor, partial curve]	
COc1ccc(CN(Cc2ccco2)c2cnc(S(C)(=O)=O)nc2C(=O)Nc2ccc(F)cc2)cc1	inconclusive: 20.6 µM [inhibitor, single point]	
Cc1noc(C)c1COc1ccc(C(=O)OCC(=O)N2CC3(C)CC2CC(C)(C)C3)cc1 (stereo not drawn)	inconclusive: 29.1 µM [inhibitor, single point]	

SMILES	Potency	activity change, negative = growth inhibition
Cn1c(CC(=O)Nc2ccc(F)cc2)c(Sc2ccccc2)c2ccccc21	inconclusive: 14.6 µM [inhibitor, partial curve]	
CC(C)NC(=O)C1(C)Cc2c(-c3ccc(C(N)=O)cc3)ccnc2O1 (stereo not drawn)	inactive	
COc1ccc(S(=O)(=O)N(CC(=O)Nc2cccc(C(F)(F)F)c2)c2ccc(C)cc2)cc1	inconclusive: 20.6 µM [inhibitor, single point]	
O=[N+]([O-])c1ccc(Oc2cnc3ccccc3n2)cc1	inactive	
COCc1ccc(CN2Cc3ccccc3OC(c3ccccc3F)C2)o1 (stereo not drawn)		inactive: 4.16% [at 9.04 µM]
CCn1c(O)c(/C=C2\C=NN=C2c2ccccc2)sc1=S	inactive	
CS(=O)(=O)N1Cc2ccccc2CC1C(=O)OCC(=O)Nc1ccc2ccccc2c1 (stereo not drawn)	inactive	
O=C(COc1coc(CN2CCc3ccccc32)cc1=O)Nc1cccc(F)c1	inactive	
O=C1CC(Nc2ccccc2)C(=O)N1CCc1ccccc1 (stereo not drawn)	inconclusive: 14.6 µM [inhibitor, single point]	
COc1ccc(CN2CN(S(=O)(=O)c3cccs3)c3nc4ccccc4nc32)cc1	inconclusive: 29.1 µM [inhibitor, single point]	
NC1=NN=C(N2N=C(c3ccc(Br)cc3)CC2(O)C(F)(F)F)n2ncnc2C1 (stereo not drawn)	inactive	
CCOC(=O)C1CCN(C(c2cc(OC)c(OC)c(OC)c2)c2sc3nc(C)nn3c2O)CC1 (stereo not drawn)		inconclusive: -33.6% [inhibitor]
COc1ccc(C(=O)NCc2nnc(SCC(=O)N3CCC(C)CC3)o2)cc1OC	inactive	
CCOc1ccc(C(=O)c2cn(CC(=O)Nc3ccc4c(c3)OCO4)c3ccc(OCC)cc3c2=O)cc1	inconclusive: 6.51 µM [inhibitor, single point]	
CCCN1C2=C(C(=O)CC(C)(C)C2)C(c2ccc(F)cc2)C2=C1c1ccccc1C2=O (stereo not drawn)	active: 20 µM	
COc1ccc(S(=O)(=O)Nc2cccc(S(=O)(=O)N(C)C)c2)cc1[N+](=O)[O-]	inactive	
COc1ccc(C)cc1-n1nnnc1SCc1cc(=O)n2cc(C)ccc2n1	active: 8.2 µM	
O=C(COC(=O)C1CCCN1C(=O)C12CC3CC(CC(C3)C1)C2)c1ccc(Br)cc1 (stereo not drawn)	inconclusive: 29.1 µM [inhibitor, single point]	
CCc1ccccc1NC(=O)CNC(=O)c1cccc(S(=O)(=O)N2CCN(Cc3ccccc3)CC2)c1	inactive	
Cc1cccc(N(C(=O)Cn2nnc3ccccc32)C(C(=O)NC(C)(C)C)c2ccsc2)c1 (stereo not drawn)	inconclusive: 16.4 µM [inhibitor, single point]	
N#Cc1cnc(SCCc2ccccc2)nc1N	inconclusive: 20.6 µM [inhibitor, partial curve]	
O=C(NNC(=O)c1ccccc1O)c1ccccc1O	active: 5.17 µM	
CC(C)c1nnc(N2C(=O)c3oc4ccccc4c(=O)c3C2c2ccco2)s1 (stereo not drawn)	inconclusive: 18.4 µM [inhibitor, single point]	
